50 sequences from the supplement of paper PMC12645437, “Orthogonal IMiD-Degron Pairs Induce Selective Protein Degradation in Cells” (ACS Chemical Biology, 2025) can be followed below.

This is one part of the list.
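Note: jurkat cells carrying a lentiviral library of mutant zinc finger degrons fused to EGFP plus mCherry, mCherry+ cells FACS sorted, degron abundance counted by next-generation sequencing.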

The target of this assay is no compound (DMSO). Description: log2 fold change of degron read counts, EGFP-low vs EGFP+ sorted cells; higher = lower degron-EGFP level without compound (poor expression or instability). The note with it: compound: DMSO control; 18 h.
Consider FNCNVCGAYFTQKGNLLRHIKL, for which the “log2 fold change of degron read counts” value stood at 0.054.
For the sequence FACEQCGAVFTQKGNLLRHIKL, the “log2 fold change of degron read counts” value was -1.09.
Regarding LVCNQCGFNCTQKGNLLRHIKL, the “log2 fold change of degron read counts” value is 0.175.
Take FDCPQCGAWFTQKGNLLRHIKL: the “log2 fold change of degron read counts” value was -0.197.
FRCEICGATFTQKGNLLRHIKL: the “log2 fold change of degron read counts” value was -1.36.
Consider FKCPVCGAFFTQKGNLLRHIKL, for which the “log2 fold change of degron read counts” value stood at 0.536.
On to FLCPICGAKFTQKGNLLRHIKL, for which the “log2 fold change of degron read counts” value is -0.392.
On to FCCPICGAAFTQKGNLLRHIKL, for which the “log2 fold change of degron read counts” value amounted to 0.262.
Under FICNQCGAWFTQKGNLLRHIKL stands 0.67; under FICPICGRSFTQKGNLLRHIKL, -0.401.
With FCCEICGAQFTQKGNLLRHIKL the figure was -1.29.
As for FRCPICGHMFTQKGNLLRHIKL, the “log2 fold change of degron read counts” value was -0.238.
With LACEICGFWCTQKGNLLRHIKL the figure was 1.03.
For the sequence FVCEVCGAGFTQKGNLLRHIKL, the “log2 fold change of degron read counts” value is -2.34.
Turning to FDCNQCGRIFTQKGNLLRHIKL, the “log2 fold change of degron read counts” value turned out to be 0.834.
On to FQCPICGATFTQKGNLLRHIKL, for which the “log2 fold change of degron read counts” value was -0.326.
Under FICNQCGRHFTQKGNLLRHIKL stands -0.622; under FTCPICGHLFTQKGNLLRHIKL, -0.183.
Consider LNCPICGFRCTQKGNLLRHIKL, for which the “log2 fold change of degron read counts” value turned out to be 0.875.
With FHCPICGHCFTQKGNLLRHIKL the figure was -0.0489.
Turning to FMCEICGRRFTQKGNLLRHIKL, the “log2 fold change of degron read counts” value is -1.44.
Regarding FECPICGRYFTQKGNLLRHIKL, the “log2 fold change of degron read counts” value is -0.188.
For LFCEICGFVCTQKGNLLRHIKL, the “log2 fold change of degron read counts” value was found to be 0.596.
For FLCDQCGALFTQKGNLLRHIKL, the “log2 fold change of degron read counts” value was -0.363.
Take FQCEICGRPFTQKGNLLRHIKL: the “log2 fold change of degron read counts” value was -1.34.
As to FLCEQCGARFTQKGNLLRHIKL, the “log2 fold change of degron read counts” value is -1.24.
On to FRCDICGATFTQKGNLLRHIKL, for which the “log2 fold change of degron read counts” value was -2.13.
Regarding LCCPICGFNCTQKGNLLRHIKL, the “log2 fold change of degron read counts” value came out at 0.637.
With FYCEICGHLFTQKGNLLRHIKL the figure was -0.184; with FFCNQCGAEFTQKGNLLRHIKL, -0.213.
Turning to FLCPQCGAMFTQKGNLLRHIKL, the “log2 fold change of degron read counts” value came to 0.0354.
Under FYCEQCGAPFTQKGNLLRHIKL stands -0.624.
As for FQCDICGAEFTQKGNLLRHIKL, the “log2 fold change of degron read counts” value is -0.842.
On to FDCSVCGHFFTQKGNLLRHIKL, for which the “log2 fold change of degron read counts” value amounted to 1.66.
Take FRCEICGRTFTQKGNLLRHIKL: the “log2 fold change of degron read counts” value is -1.72.
Take FDCPICGHYFTQKGNLLRHIKL: the “log2 fold change of degron read counts” value was -0.442.
For FFCNQCGALFTQKGNLLRHIKL, the “log2 fold change of degron read counts” value was determined as 0.993.
As for FGCDVCGAAFTQKGNLLRHIKL, the “log2 fold change of degron read counts” value is -1.24.
On to FACDQCGAAFTQKGNLLRHIKL, for which the “log2 fold change of degron read counts” value was -1.7.
Take FECEICGRNFTQKGNLLRHIKL: the “log2 fold change of degron read counts” value is -1.35.
For the sequence FRCNVCGADFTQKGNLLRHIKL, the “log2 fold change of degron read counts” value was -0.319.
Consider FCCDQCGAQFTQKGNLLRHIKL, for which the “log2 fold change of degron read counts” value was -1.82.
For the sequence FQCDICGALFTQKGNLLRHIKL, the “log2 fold change of degron read counts” value is -1.72.
Under LVCNQCGFHCTQKGNLLRHIKL stands -0.233; under FLCEICGHSFTQKGNLLRHIKL, -2.1.
FYCNQCGHLFTQKGNLLRHIKL: the “log2 fold change of degron read counts” value worked out at 0.902.
For the sequence FNCEICGATFTQKGNLLRHIKL, the “log2 fold change of degron read counts” value was -1.63.
Consider FKCSVCGHPFTQKGNLLRHIKL, for which the “log2 fold change of degron read counts” value amounted to 0.273.
For FHCDVCGAMFTQKGNLLRHIKL, the “log2 fold change of degron read counts” value was -1.26.
On to LNCNQCGFICTQKGNLLRHIKL, for which the “log2 fold change of degron read counts” value is 1.15.
